Source: PubChem BioAssay AID463254 (National Center for Advancing Translational Sciences (NCATS), 2010)
Among all 330,000 compounds or so, about 40 (0.01%) were called active. Inconclusive results, whose numbers are uncertain, are shown with a selection of clear calls. The call rests on the fitted dose curve; in most records, active means well fitted inhibition curve with a large enough effect; inconclusive means small, poorly fitted or top-dose-only effect, or effect the other way; inactive means flat fitted curve, though single readings scatter. Potencies of inconclusive entries are doubtful fits and often do not repeat.

The compounds below were run against Ubiquitin carboxyl-terminal hydrolase 2 (Homo sapiens) (UniProt O75604) (assay: qHTS Assay for Inhibitors of Ubiquitin-specific Protease USP2a Using CHOP2 as the Reporter). Details: USP2 core, Ub-CHOP2 coupled fluorogenic reporter, 485/531; activity change, negative = inhibition: at 38.3 µM (top of the series).
UniProt O75604, sequence (O75604 whole entry, looked up): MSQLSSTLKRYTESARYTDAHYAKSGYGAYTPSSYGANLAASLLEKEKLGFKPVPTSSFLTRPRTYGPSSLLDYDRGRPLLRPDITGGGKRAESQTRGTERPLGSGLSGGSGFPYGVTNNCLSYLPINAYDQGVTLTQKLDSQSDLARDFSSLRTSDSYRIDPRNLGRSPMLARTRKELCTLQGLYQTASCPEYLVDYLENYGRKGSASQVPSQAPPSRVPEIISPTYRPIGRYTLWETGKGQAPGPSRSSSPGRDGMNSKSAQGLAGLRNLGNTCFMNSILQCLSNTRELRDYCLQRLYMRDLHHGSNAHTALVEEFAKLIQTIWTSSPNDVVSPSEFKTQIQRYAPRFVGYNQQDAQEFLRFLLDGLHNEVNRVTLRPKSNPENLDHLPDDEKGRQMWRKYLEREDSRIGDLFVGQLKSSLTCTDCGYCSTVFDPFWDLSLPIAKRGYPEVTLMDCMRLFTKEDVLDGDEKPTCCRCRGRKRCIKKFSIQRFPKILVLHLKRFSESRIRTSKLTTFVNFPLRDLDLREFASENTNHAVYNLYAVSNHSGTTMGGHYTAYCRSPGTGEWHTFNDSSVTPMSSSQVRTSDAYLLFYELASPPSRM
Procedure, shortened: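 Cell-free coupled assay: 10nM USP2 core preincubated 30min RT with compound in Tris-HCl pH 8.0/CaCl2/CHAPS buffer, then 25nM Ub-CHOP2 and 25nM reporter substrate; fluorescence (Ex 485/Em 531) read after 60min RT, normalized to NEM inhibition, concentration-response curves fitted.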
Potency means the concentration at half of the fitted maximal effect; tags describe the fitted curve by direction and shape or compound fluorescence and quenching.
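Wherever activity change, negative = inhibition is given: plate controls were DMSO wells for no effect and full inhibition by NEM control for full effect.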

Potency, inactive:
c1cnc2c(c1)ccc1cccnc12

Potency, active:
C=C1c2cccc(O)c2C(=O)C2C(=O)[C@]3(O)C(=O)C(C(N)=O)C(=O)[C@@H](N(C)C)[C@@H]3[C@@H](O)[C@H]12 (stereo not given in full) 7.08 µM
CSc1nc(SCCO)c2sc3nc(-c4ccco4)c4c(c3c2n1)CC(C)(C)OC4 10 µM
C#CCOCCOCCOCCNc1nc(N2CCN(C(=O)CCCCCCCCCCNC(=O)[C@H]([C@@H](C)CC)n3cc(CCCCCN)nn3)CC2)nc(N2CCN(C(=O)CCCCCCCCCCNC(=O)[C@@H]([C@H](C)O)n3cc(C)nn3)CC2)n1 10 µM

Potency, inconclusive:
CCOC(=O)C1=C(C)NC(SCC(=O)Nc2nc(C)cs2)=C(C#N)C1c1cccs1 (stereo not given) 11.2 µM [falling, single point]
Cc1ccc(N(CC(=O)N/N=C/c2ccco2)S(=O)(=O)c2ccccc2)cc1 22.4 µM [falling, single point]
CN1\C(=C/C=C/C=C/C=[N+](C)C)C(C)(C)c2ccccc21 12.6 µM [fluorescent, partial curve]
COC(=O)CSc1nnc(NC(=O)C2CC(=O)N(c3ccc(F)cc3)C2)s1 (stereo not given) 22.4 µM [falling, single point]
Cc1ccc(C(=O)N/C(=C/c2ccco2)C(=O)Nc2cccc(C(=O)O)c2)cc1 28.2 µM [falling, single point]
CC(C)CC1=NN2C(=N)/C(=C\c3coc4ccccc4c3=O)C(=O)N=C2S1 25.1 µM [fluorescent, single point]
CSc1ccc(NC(=O)CSc2nc3[nH]c(=O)cc(O)c3s2)cc1 20 µM [falling, single point]
COc1ccc(-c2[nH]ncc2CN2C[C@@H]3CCC[C@H]2C3)c(F)c1 14.1 µM [fluorescent, single point]
C#CCOCCOCCOCCNc1nc(N2CCN(C(=O)CCCCCCCCCCNC(=O)[C@H](CCCCN)n3cc(CCO)nn3)CC2)nc(N2CCN(C(=O)CCCCCCCCCCNC(=O)[C@H](CCCN=C(N)N)n3cc(C[C@@H](C)CC)nn3)CC2)n1 28.2 µM [falling, single point]
CC(C)CSC1=NSC2=NC(=O)/C(=C\c3coc4ccccc4c3=O)C(=N)N12 11.2 µM [fluorescent, partial curve]
C(=N\N(c1ccccc1)c1ccccc1)/c1ccccn1 22.4 µM [falling, single point]
c1ccc(CN2CCN(CCOCCOc3cccc4ccccc34)CC2)cc1 14.1 µM [falling, single point]
O=C(CN1C(=O)/C(=C2\SC(=S)N(CCS(=O)(=O)O)C2=O)c2ccccc21)Nc1cccc(Br)c1 22.4 µM [falling, single point]
CC(C)N1CC=C2C(C#N)=C(N)C(C#N)(C#N)[C@H](c3ccoc3)[C@H]2C1 10 µM [fluorescent, partial curve]
O=C(CCNc1cccc(Cl)c1)c1ccco1 5.01 µM [falling, single point]
COc1cc(/C=c2\sc3nc(=O)c(-c4ccccc4)nn3c2=O)ccc1OCCC(C)C 14.1 µM [fluorescent, single point]
CC(C)c1nnc(N2C(=O)C(O)=C(C(=O)c3cccs3)C2c2ccccc2)s1 (stereo not given) 1 µM [fluorescent, full curve]
CCCN1CCN(C(=O)c2cc3c(s2)-c2ccccc2S(=O)(=O)C3)CC1 5.01 µM [falling, single point]
Cc1ccc(C)n1-c1cc(S(=O)(=O)N2CCOCC2)ccc1N1CCCC1 2.82 µM [falling, single point]
OCCCc1nc2n(n1)C(c1cccs1)C=C(c1ccccc1)N2 (stereo not given) 12.6 µM [fluorescent, single point]
CCN1CC=C2C(C#N)=C(N)C(C#N)(C#N)[C@H](c3ccoc3)[C@H]2C1 10 µM [fluorescent, single point]
Cc1cccc(N=C2NC(=O)/C(=C/C=C/c3ccco3)S2)c1 28.2 µM [falling, single point]
COc1cc(OC)cc(-c2c(C#Cc3ccsc3)c3cc(-c4ccc(OC)c(OC)c4)ccc3n2C)c1 15.8 µM [falling, single point]
Cc1ccc(-c2c(C)n([O-])c3c([n+]2=O)CCC3)o1 20 µM [falling, single point]
COc1ccc(/C=N\NC(=O)c2cc(O)c(O)c(O)c2)cc1COc1ccc(C(=O)OCC(C)C)cc1 14.1 µM [falling, single point]
COc1ccc(OCC(=O)NCCNC(=O)c2cccnc2)cc1 28.2 µM [falling, single point]
COc1cccc(-c2csc3nnc(SCC(=O)NCc4cccs4)n23)c1 3.16 µM [falling, single point]
CCc1cc2c(=O)c(-n3cnc4ccccc43)coc2cc1O 3.98 µM [falling, single point]
Cc1ccc(C)n1NC(=O)c1ccccc1O 12.6 µM [falling, single point]
CCOC(=O)/C(=C/C=C1\Sc2ccccc2N1CC)C(C)=O 11.2 µM [fluorescent, partial curve]
COc1ccc(-c2nnn(CC(=O)N3CCOCC3)n2)cc1 5.01 µM [falling, single point]
N=C1/C(=C\c2coc3ccccc3c2=O)C(=O)N=C2SC=CN12 12.6 µM [fluorescent, partial curve]
C=CCn1c(=O)[nH]c2nc3cc(N=CN(C)C)c(C)cc3nc2c1=O 7.08 µM [fluorescent, partial curve]
Cc1ccc(C2=NC(=O)/C(=C/c3cc(O)c(O)c(Br)c3)S2)cc1 28.2 µM [falling, single point]
CCCCCCCCCCC[N+](C)(C)CC/C=C1/c2ccccc2Sc2ccc(Cl)cc21 14.1 µM [falling, single point]
C[n+]1cc(C(=O)N2CCCCC2)ccc1/C=C/c1c[nH]c2ccccc12 11.2 µM [fluorescent, partial curve]
O=C(c1ccccc1)c1ccc2nc(-c3ccco3)c(-c3ccco3)nc2c1 20 µM [falling, single point]
Cc1nn(C)cc1CNC(=O)c1ccc(Br)o1 28.2 µM [falling, single point]
Cc1ccc2c(c1)c(/C=C/c1cc[n+](C)cc1)c(C)n2C 11.2 µM [fluorescent, single point]
C/C(=N/NC(=O)c1cc2ccccc2cc1O)C1C(=O)c2ccccc2C1=O 22.4 µM [falling, single point]
Cc1c(NC(=O)C2CCCN(S(=O)(=O)c3cnc[nH]3)C2)c(=O)n(-c2ccccc2)n1C (stereo not given) 15.8 µM [falling, single point]
CC1=NN(C(=O)c2csc(C)c2C)C(O)(C(F)(F)F)C1 (stereo not given) 20 µM [falling, single point]

Activity change, negative = inhibition, inactive:
CCCCNC(=O)/C(C#N)=C/c1ccc2c(c1)OCCO2 0.724%
O=C(NCCCN1CCCC1=O)C1CCN(S(=O)(=O)c2ccccc2)CC1 2.1%
CCCN1CCc2c(sc(NC(=O)c3ccc(S(=O)(=O)N(C)c4ccccc4)cc3)c2C(N)=O)C1 0.525%
Cc1ccc(S(=O)(=O)N2CCC[C@H]2C(=O)OCC(=O)c2ccc3c(c2)NC(=O)CO3)cc1 0.112%
Cc1ccc2c(c1)[nH]c1c(=O)n(CCN3CCCCC3)cnc12 -0.15%
CC(C)Oc1ccc(CNCC2(O)CCOC(C)(C)C2)cc1 (stereo not given) -0.786%
Cc1ccccc1C1C(C#N)=C(N)N(N(C)C)C2=C1C(=O)CC(C)(C)C2 (stereo not given) 1.88%
CCC(Sc1nc(C)cc(=O)[nH]1)C(=O)Nc1nc2c(s1)CCCC2 (stereo not given) -3.22%
CCOc1ccc(CNC(=O)c2ccccc2NC(=O)C2=CSCCO2)cc1 1.9%
FC(F)(F)c1cccc(NC(=S)N2CCN(c3cccc(C(F)(F)F)c3)CC2)c1 0.66%
Cc1ccn2c(=O)c(C(=O)NCCN3CCOCC3)c(O)nc2c1 0.661%
Cc1ccccc1CN1CCC(CNC(=O)C2CCCN(c3ncnc4c3nc3n4CCCCC3)C2)CC1 (stereo not given) 1.01%
O=C(C[C@H]1C[C@H](C(=O)N2CCCCC2)[C@@]2(CCc3ccccc3)c3[nH]c4ccc(Cl)cc4c3CCN2C1=O)NCCN1CCOCC1 0.269%
CC(C)N(C(=O)[C@H]1CC(CC(=O)NCC23CC4CC(CC(C4)C2)C3)C(=O)N2CCc3c([nH]c4ccccc34)[C@]12C)C(C)C (stereo not given in full) -0.952%
Cc1ccc(C)c(NC(=O)CN(C)C(=O)c2ccc3[nH]c4c(c3c2)CC(C)CC4)c1 (stereo not given) -6.61%
Cc1nn(Cc2ccccc2)c2c1C(c1ccc(Cl)cc1)C(C#N)=C(N)O2 (stereo not given) 3.07%
C=CCn1c(N)c(C(=O)OC(C)(C)C)c2nc3ccccc3nc21 -0.813%
Cc1ccc(SCCC(=O)N(C)CC(=O)Nc2c(C)cccc2C)cc1 -0.387%
Oc1ccc(C=Nc2ccccc2-c2nc3ccccc3[nH]2)c(O)c1 -2.88%
